The full ranking holds about 33,000 sequences; the median of “E-score (-0.5 to 0.5)” is about -0.016, and the highest 2% start at about 0.32. The list shows a part of the results.

Results on 86 sequences are retold here after the supplement of paper PMC3334620.

The target in this assay is T1, Stp1 (UniProt B3LFK1).
T1 sequence: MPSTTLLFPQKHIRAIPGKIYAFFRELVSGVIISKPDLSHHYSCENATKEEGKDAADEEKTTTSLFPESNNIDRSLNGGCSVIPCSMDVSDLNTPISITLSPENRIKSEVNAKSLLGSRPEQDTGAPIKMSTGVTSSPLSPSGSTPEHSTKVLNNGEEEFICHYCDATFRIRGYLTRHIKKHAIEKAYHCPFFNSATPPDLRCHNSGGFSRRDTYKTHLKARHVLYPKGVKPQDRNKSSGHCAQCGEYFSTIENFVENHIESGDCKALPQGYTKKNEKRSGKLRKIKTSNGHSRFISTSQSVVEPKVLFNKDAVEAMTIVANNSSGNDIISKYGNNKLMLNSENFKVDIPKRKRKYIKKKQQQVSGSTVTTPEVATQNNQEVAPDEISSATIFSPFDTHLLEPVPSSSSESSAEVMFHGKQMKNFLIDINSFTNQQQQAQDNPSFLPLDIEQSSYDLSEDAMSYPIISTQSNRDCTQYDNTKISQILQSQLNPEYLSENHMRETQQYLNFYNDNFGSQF
Put plainly: PBM E-score (8-mer binding enrichment) (E-score (-0.5 to 0.5)); higher = stronger / more preferred TF binding; most listed sequences are background and not binding sites. Particulars: protein concentration: 200 nM; construct: GST-full length. In short, it runs like this: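 Bound GST-tagged yeast transcription factors, applied at about 100-200 nM to double-stranded universal all-10-mer Agilent arrays, were detected with fluorescent anti-GST. Scans were normalised with masliner. A modified Wilcoxon-Mann-Whitney statistic, the E-score, was assigned to each ungapped eight-base word pooled with its reverse complement by the Universal PBM Analysis Suite.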
CCAAAGTC: the “PBM E-score” value was -0.132.
As for GGTAGACC, the “PBM E-score” value was -0.227.
The result for GACCGACC reads -0.0875.
The result for GTGACCGA reads -0.0805; that for CAAAGTGG, -0.159.
The result for AGTACGTA reads -0.0529.
Take GTTCGTGA: the “PBM E-score” value was -0.0233.
The result for AAGAGGCC reads -0.131.
The result for AGCGCCCT reads 0.319.
The result for CACCACTG reads -0.103; that for ATCGACGA, -0.00564.
In the case of CCGACTAC, the “PBM E-score” value worked out at 0.00232.
The result for CAGGTCCA reads -0.0938.
The result for CTTGCGCC reads 0.251; that for ACGAAGCG, -0.0376.
Consider ATTAAGGA, for which the “PBM E-score” value is 0.0308.
The result for ATTCTTTG reads 0.122; that for GCTGATGA, -0.00753.
The result for GCCATTCA reads 0.106; that for AGCTGCGA, -0.129; that for ACCCAAAC, 0.0176.
The result for CCAGGGAC reads -0.191.
Turning to ATGTCTTC, the “PBM E-score” value is -0.249.
The result for ATCCCCAC reads -0.0878; that for CTAGTGAA, -0.112; that for CAAACGAG, 0.0114.
The result for ATATTGAA reads 0.0613.
The result for AATCATAG reads 0.042; that for CAACAGCA, 0.0247; that for ACCTTCGC, -0.027.
As for CAGCGGAG, the “PBM E-score” value was 0.0266.
The result for GACCGGAC reads -0.124; that for CTCTAATC, -0.115.
For CACGAGTC, the “PBM E-score” value is -0.227.
The result for AAAGCCCG reads -0.134.
The result for AACAAGAA reads 0.208; that for AGTGGATG, -0.181; that for ACAGACCC, -0.164.
The result for TACCTGAA reads 0.00092.
In the case of GTTCAGAA, the “PBM E-score” value is 0.0312.
The result for AACATTCG reads -0.129; that for AATTACCG, 0.104; that for ACCTGAGC, -0.133.
The result for ACGATTAA reads 0.0663; that for ACTCAGAT, 0.094.
The result for AGATGGCA reads 0.238; that for TCCGCGCA, 0.161; that for AAAGGTGG, -0.0176.
As to ACGGCCTA, the “PBM E-score” value came to 0.119.
The result for CGGTGCCA reads 0.0766; that for AACTATCA, 0.13.
The result for GTATTACA reads 0.0234; that for CTGCGCGC, 0.269.
Consider AAGCCGAG, for which the “PBM E-score” value is -0.0198.
As for ACCCGACT, the “PBM E-score” value was -0.14.
Turning to GCGAATCC, the “PBM E-score” value is -0.106.
The result for TACTTCTA reads 0.0861; that for AATACAGA, 0.0706; that for ACGAGAGG, -0.179.
The result for CGTACATA reads 0.133; that for CATTCGGC, 0.155.
The result for GGCTGACA reads 0.0532; that for AGCGGTCA, -0.123.
Consider TCTATTCA, for which the “PBM E-score” value turned out to be 0.116.
As to AGCAAGAT, the “PBM E-score” value worked out at 0.0141.
With AACGGGTC, the “PBM E-score” value was -0.0829.
CTCCCTTC: the “PBM E-score” value was -0.335.
The result for CTCTTGAC reads -0.0778; that for GTTTTGTA, 0.173.
The result for GACGCGAC reads -0.0598; that for CAACAAAC, 0.203.
The result for GTGCACAC reads -0.0838; that for TAGCCCAA, -0.127; that for CAGAACCG, 0.0388.
As to GAACTATC, the “PBM E-score” value was -0.184.
The result for CTAATCCA reads -0.0678; that for CCGCCACC, -0.132.
The result for ACTCTGCG reads -0.0491; that for ATAGCGCG, 0.136.
The result for ACACTCTG reads -0.145.
For the sequence CATCGGCG, the “PBM E-score” value was 0.0728.
The result for ACAGTGAC reads -0.189.
The result for CGTCAATA reads -0.0812.
The result for ATGCGGAC reads 0.0964; that for CTGGTACC, -0.123.
Regarding TTCGCCAA, the “PBM E-score” value was -0.0507.
